The text below walks through data of the RNAGym collection of RNA variant scans (doi:10.7554/elife.90254).

The labels stand for the following.
B1: LINE1-full (parent)
chain: UACGUAGGUGGUUUUCCCCUGAUAGUGCUAAGGGGGCCUGGAAGUUUGGACUGGGCAGAGCUCAACACAGCGUGGCAAAGUGGCUGUGGCUAGACUGCCUCUCUGGAUUCCUCGUCACUCAGCAGGGCAUCUCUGAGAGAAAUGCC

Read counts are not given, so values of variants with three or more changes are uncertain.

Variants of B1 are the subject of the data set. In words: self-cleavage, relative activity (ratio to wild type); higher = more cleavage; in vitro, sequencing; the parent is a self-cleaving ribozyme.
As to A64U A77G A129G, the self-cleavage stood at 1.1.

With U9A A92G A121U A136G, the self-cleavage was 0.17.

U13C U29C U62C: the self-cleavage was found to be 0.3.

As to U20G A59U A117G, the self-cleavage amounted to 1.84.

As to U39C U96A C103A, the self-cleavage amounted to 0.05.

In the case of U14C U115C A129G, the self-cleavage was 0.

A57G A78G C120U: the self-cleavage amounted to 1.38.

As for U52C U73A A117G, the self-cleavage was 2.48.

For the variant U26C U109A U119C, the self-cleavage worked out at 1.75.

Turning to U13C U29C C90U, the self-cleavage was determined as 0.12.

In the case of U12C A77G U143C, the self-cleavage worked out at 1.19.

With U14C U15A A67U U109C, the self-cleavage stood at 0.

Turning to A6U U39A A42G A57G A124U A138U A142G, the self-cleavage is 1.21.

On to C110G U119C A141G, for which the self-cleavage is 1.47.

Consider G4A U39C U52G U62A, for which the self-cleavage is 0.05.

For U52A U62C U130C, the self-cleavage was found to be 0.12.

With U14C G72A U100C, the self-cleavage came out at 0.73.

Consider U39C A59U A107G U112C, for which the self-cleavage came to 1.8.

In the case of U15C A77U A79G, the self-cleavage was determined as 1.17.

Regarding U13C A57G G86A U132C, the self-cleavage stood at 0.

U12C A129G A140G: the self-cleavage is 0.84.

On to U20A A43U A77G U96A G105A, for which the self-cleavage is 0.

For A94G U109C C118U, the self-cleavage turned out to be 0.11.

Turning to A50G A92U U130C, the self-cleavage was 0.4.

For A22G A78G A79U U104A G106A A124G, the self-cleavage was 1.15.

On to U73A U102C U134C, for which the self-cleavage was determined as 1.76.

Consider A50G U115C A121U, for which the self-cleavage worked out at 0.79.

As for A31G U62A C66U, the self-cleavage was 0.06.

U26C U47C U132A A136G: the self-cleavage worked out at 1.02.

Take A59G G89C U112A: the self-cleavage was 0.

For the variant A2U U12C A107U, the self-cleavage turned out to be 1.24.

Regarding U12G U52C U104C C110U, the self-cleavage turned out to be 1.67.

Regarding U1C U14C U20C A57U A78G G127A, the self-cleavage stood at 0.12.

On to A57G U87C C103U, for which the self-cleavage stood at 0.06.

Take U26G C128G A129G A136G: the self-cleavage came to 1.44.

For the variant A77U A79G A136U, the self-cleavage came to 1.33.

With U9A U73C C116U, the self-cleavage was found to be 2.09.

For the variant A2U U20C A22U U85C, the self-cleavage is 0.35.

For the variant U15C U46C U91C A107G G135A A141G, the self-cleavage was found to be 2.42.

As to U14A A43G U73A U91C, the self-cleavage is 0.

In the case of G35C A78G U130C, the self-cleavage was 1.44.

Take U45C A79G U109A G126A: the self-cleavage is 0.55.

In the case of A22G A43G A67G A142G U143A, the self-cleavage amounted to 0.48.

Take U15C C103A U143A: the self-cleavage stood at 0.

On to G34U U91C A121C, for which the self-cleavage came out at 1.09.

For U39A A64G A69G, the self-cleavage amounted to 0.21.

For the variant G4A C68U A69U, the self-cleavage came out at 0.03.

For G21A G32U C37U A50G U109A U130C, the self-cleavage is 0.52.

With C16U U29C A69U U91C, the self-cleavage was 0.06.

For the variant U12G U62C A129C, the self-cleavage was found to be 0.4.

On to C37G A138G A141G, for which the self-cleavage came to 0.68.

For A79G U132A A136G, the self-cleavage amounted to 1.52.

As to U52C U104C A136U, the self-cleavage was found to be 1.75.

For the variant U20C U52C A142G, the self-cleavage came to 0.63.

Take U13C U26C G35U G54A A57G A79G U134A: the self-cleavage was 0.53.

Consider G8A U20A A77G U96C, for which the self-cleavage was 0.3.

As for C84U U100C A107G, the self-cleavage turned out to be 0.

For the variant U102C U109C A141G, the self-cleavage is 2.21.

In the case of G54A A67U U81C, the self-cleavage was found to be 0.05.

With A30G G34A U47C C113A, the self-cleavage was determined as 0.78.

Regarding U12G U14C U26C U143A, the self-cleavage was 1.35.

On to U26C U100C A136G, for which the self-cleavage was 2.71.

Consider U13C A22G U45C A124G, for which the self-cleavage came to 1.2.

For A69G U85A U108C C146A, the self-cleavage was determined as 0.1.

On to U20A A67G U143C, for which the self-cleavage was determined as 1.93.

For the variant C37G A107G U134A A136U U143C, the self-cleavage came to 0.95.

With G32A U47A A59G U91C U109G A138G, the self-cleavage was 0.

A42G A43G U134C: the self-cleavage worked out at 1.72.

Turning to U23C U73C U109C, the self-cleavage turned out to be 2.3.

Consider G4A C19U U85C U112C A140G, for which the self-cleavage was 0.08.

Turning to G72A U115C A124G U134C, the self-cleavage came out at 1.19.

For the variant A2G A6G U46C, the self-cleavage worked out at 0.

As for C101G A121U A142G, the self-cleavage came to 0.48.

For U45C U87A U108C, the self-cleavage stood at 0.04.

With A22G A57U U132A, the self-cleavage was 0.22.

Regarding U47A A117G C131A, the self-cleavage turned out to be 1.27.

On to U5A U9A U52C G58A, for which the self-cleavage was 0.11.

Regarding U9C U73C G127U, the self-cleavage was 0.66.

In the case of U13C G34U A107G, the self-cleavage was 0.84.

For the variant U15C U52C G60U, the self-cleavage turned out to be 0.01.

Regarding U1C U46C A67G G88A U115C, the self-cleavage came to 0.18.

U12C C61U A141G: the self-cleavage worked out at 0.02.

For the variant A50G U87A A140G, the self-cleavage came to 0.03.

A69U U73A A141G A142G: the self-cleavage was 0.02.

As for A57G A92G U119C, the self-cleavage was 0.67.

For the variant G72U U102A U115C, the self-cleavage was determined as 1.71.

Regarding A43G U45A U96A G127A, the self-cleavage came to 0.

On to U15C U47C G125A, for which the self-cleavage was determined as 0.78.

Take C19U A31G U119C: the self-cleavage amounted to 0.54.

For G53A U62C A92U, the self-cleavage came out at 0.

Take G10A A24C A64U U73G U85C U102C U112A: the self-cleavage turned out to be 0.

Take U9C U73A U102A U130C: the self-cleavage is 1.27.

For A2G G34A G105A, the self-cleavage was 1.44.

U39C U81A A140G U143A: the self-cleavage turned out to be 1.72.

On to U20C U47C U62A, for which the self-cleavage is 0.

Take A43G A64G G83A U102G: the self-cleavage amounted to 0.

With G8A U13A U100C U104A, the self-cleavage amounted to 1.31.

U5C A57C U130C: the self-cleavage came out at 0.

With G33U G34A U102A A129G, the self-cleavage was determined as 1.35.

As to U20C C71U A124U, the self-cleavage was 1.18.

For U1C C3G U14C U130A, the self-cleavage came out at 0.43.

Consider U9G U85C U130C, for which the self-cleavage is 0.17.

As for U13C U100C U132A, the self-cleavage came to 1.94.

Take U14C U119C A124G A140G: the self-cleavage amounted to 0.71.

Consider U14C U23C A43G U62C G82U, for which the self-cleavage worked out at 0.31.

Take U9G G33A A50U A59G A67U U104A U109C A140G: the self-cleavage is 0.07.

U12C U15C U26A C110U: the self-cleavage is 1.27.

C103U U134C A141G: the self-cleavage was 0.72.

Regarding U13C A57U U96C A117U A138G, the self-cleavage is 0.04.

In the case of U23A U26A A129G A142G, the self-cleavage was 1.7.

Turning to A31G A65U U85C, the self-cleavage was found to be 0.

Consider U9C A24U U112C, for which the self-cleavage came out at 1.07.

Consider U12A U26C U29A U52C C99U, for which the self-cleavage stood at 0.74.

U15C U45G U143C: the self-cleavage was determined as 1.57.

On to U26A A30G A94G, for which the self-cleavage came out at 0.

For U9A A22G U39C U46A G54A, the self-cleavage turned out to be 0.41.

In the case of U23C U46G G54A U115A G126A, the self-cleavage was determined as 0.3.

For U1A U47A U62C A117G, the self-cleavage was 0.

With U9A U14C A57G C98U, the self-cleavage worked out at 0.16.

In the case of A42G U47A C101A G114U, the self-cleavage is 1.06.

Take U87C U91C C123U: the self-cleavage amounted to 0.13.

In the case of U13C U52C U96A, the self-cleavage stood at 0.06.

As to A2G U87C A117G, the self-cleavage turned out to be 0.61.

As for U14C C95U U132C, the self-cleavage was 0.23.

Consider A24U A57G U85C, for which the self-cleavage is 0.12.

As for U29C U52A U104A U130C, the self-cleavage was 1.4.

Turning to C101U U104A A141G A142G, the self-cleavage was determined as 1.39.

In the case of A2G U87A C133U, the self-cleavage was 0.13.

Take A43U A69U U85A: the self-cleavage came to 0.43.

Consider U29C U62C U87A U91C U100A U143C, for which the self-cleavage worked out at 0.

As to A24G G34U A64G U73G A79G U132A, the self-cleavage was 2.51.

Take U14C A67G U109C C111A: the self-cleavage was determined as 0.35.

Consider A67G A78G A136G, for which the self-cleavage amounted to 0.31.

On to U52A C56U A65G, for which the self-cleavage was found to be 0.2.

As for G8A U109A C116U, the self-cleavage was 1.01.

Turning to U46C U100A U102A, the self-cleavage is 0.85.

In the case of U9C U39A A57C A69G U85A, the self-cleavage is 0.

As for U47C U62C U112C, the self-cleavage turned out to be 0.

For U12C U108C U132A, the self-cleavage came out at 2.34.

For U46C U81C U130C, the self-cleavage was 1.53.

On to U62C A107G U108C, for which the self-cleavage came out at 0.

Take U62A U96A U108C: the self-cleavage is 0.07.

U12G U39C G105U A138U: the self-cleavage turned out to be 1.46.

Regarding U26C A30G G106A, the self-cleavage is 1.77.

As to U14C U112A G125A, the self-cleavage is 1.16.

Regarding A6G G7A A30U U46C U52C C103A U132C, the self-cleavage worked out at 0.92.

For the variant A65G U108C C123U A141G, the self-cleavage turned out to be 0.04.

Consider U46C A79U A140G, for which the self-cleavage worked out at 0.87.

On to A57G A78U A124G, for which the self-cleavage came to 0.6.

As for U26C A59G U91A A138U A142G, the self-cleavage came to 0.

As for U9A A42G A64G U81A A136G, the self-cleavage was found to be 0.57.

For the variant U26C U29C U46C U62C A94U, the self-cleavage worked out at 0.34.

For the variant U13C U14A A142G, the self-cleavage amounted to 0.91.

For the variant U9C U15C A77U A78C, the self-cleavage came out at 0.66.

For U12A U14C A107G C131U A138G, the self-cleavage is 1.19.

With U29C U85A U112C, the self-cleavage came to 0.18.

Regarding U14A U23C C90U A142G G144A, the self-cleavage worked out at 0.07.

As for U1C G40A U45A A57U U62C, the self-cleavage came to 0.

On to A42G U91C A138G U143C, for which the self-cleavage came to 0.92.

Regarding U102C U119C A129U, the self-cleavage was found to be 0.77.

For the variant A67G U96A A138G, the self-cleavage was 0.04.

In the case of A2G A107G A136U, the self-cleavage amounted to 1.

Turning to U45C U85A C90A U134A A140G, the self-cleavage is 0.05.

Take A107G A121G G127A: the self-cleavage turned out to be 1.26.

Regarding G35C U73C U96C A142G, the self-cleavage was determined as 0.

With U45C U87C U134A, the self-cleavage is 0.

Regarding U15C U45G U46C A141G, the self-cleavage worked out at 1.15.
